# Assay results taken from ChEMBL document CHEMBL5606458, “ASAP - ZIKV NS2B-NS3 protease fluorescence single point” (2024).
# Hit rate of the full screen: of about 2,700 compounds, about 160 (5.9%) showed an effect of 50% or more. Some of the results follow.
# Target: Nonstructural protein 3 (Zika virus) (UniProt A0A024AXB9)
# [1] = PRVABC59, Concentration 50.0 uM, Number of replicates 1.0
# [2] = PRVABC59, Concentration 15.0 uM, Number of replicates 1.0
# Sequence of UniProt A0A024AXB9 (A0A024AXB9 as listed by the source): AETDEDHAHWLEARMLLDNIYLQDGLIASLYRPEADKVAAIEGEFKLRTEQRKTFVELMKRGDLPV
structure (smiles),measurement,setting,value
CC(=O)N[C@@H](CCCCN)C(=O)Nc1cccc2cccnc12,inhibition,"PRVABC59, Concentration 49.95 uM, Number of replicates 2.0, Standard deviation 1.4994344900621228 %",16.3%
same,inhibition,"PRVABC59, Concentration 99.9 uM, Number of replicates 2.0, Standard deviation 0.8351280021257822 %",36.4%
Cc1cc(CO)c2cccc(NCc3ccc(C(N)=O)cc3)c2n1,inhibition,"PRVABC59, Concentration 49.95 uM, Number of replicates 2.0, Standard deviation 0.6911398690966805 %",-7.9%
same,inhibition,"PRVABC59, Concentration 99.9 uM, Number of replicates 2.0, Standard deviation 1.6597447488203414 %",-2.82%
O=Cc1ccc(N2CCC(C(=O)N[C@H](c3ccccc3)[C@@H](O)c3ccccc3)CC2)cc1,inhibition,"PRVABC59, Concentration 10.0 uM, Number of replicates 1.0",17.8%
CC(=O)N[C@@H](Cc1ccc(CN)cc1)C(=O)Nc1cccc2c(CO)cc(C)nc12,inhibition,"PRVABC59, Concentration 49.95 uM, Number of replicates 2.0, Standard deviation 1.5120886598590335 %",62.5%
same,inhibition,"PRVABC59, Concentration 99.9 uM, Number of replicates 2.0, Standard deviation 0.31634008358167093 %",95.8%
Cn1cccc(C(=O)Nc2cc(Cl)cc(C(=O)NC(C)(C)CO)c2)c1=O,inhibition,"PRVABC59, Concentration 49.5 uM, Number of replicates 2.0, Standard deviation 0.30356722825935345 %",-5.7%
same,inhibition,"PRVABC59, Concentration 99.01 uM, Number of replicates 2.0, Standard deviation 3.4992289478002414 %",-9.4%
Cc1nc([C@H]2CC[C@H](NC(=O)c3ccc(O)c(NC(=O)c4ccncc4F)c3C)CC2)n[nH]1,inhibition,"PRVABC59, Concentration 49.5 uM, Number of replicates 2.0, Standard deviation 1.8524213427177132 %",-0.145%
same,inhibition,"PRVABC59, Concentration 99.01 uM, Number of replicates 2.0, Standard deviation 2.7773366306875875 %",1.05%
same,inhibition,"PRVABC59, Concentration 198.0 uM, Number of replicates 2.0, Standard deviation 2.4534867584179723 %",2.07%
COc1cc2c(cc1OC)C(=O)[C@@H](CC1CCN(C(=O)C3CCN(c4ccc(C=O)cc4)CC3)CC1)C2,inhibition,[1],-0.737%
O=Cc1ccc(N2CCC(C(=O)NCCc3cccc(Br)c3)CC2)cc1,inhibition,[1],23.4%
O=C(c1cc(Cl)ccc1NS(=O)(=O)c1ccc(Oc2ccccc2Cl)cc1)N1Cc2ccccc2C[C@@H]1CO,inhibition,[2],15.1%
CCn1nnc(Cn2cc(C3CCNCC3)c(C)n2)n1,inhibition,"PRVABC59, Concentration 49.5 uM, Number of replicates 2.0, Standard deviation 0.8782391231154009 %",-0.555%
same,inhibition,"PRVABC59, Concentration 99.01 uM, Number of replicates 2.0, Standard deviation 1.870400808970824 %",-0.817%
same,inhibition,"PRVABC59, Concentration 198.0 uM, Number of replicates 2.0, Standard deviation 0.6669646053782257 %",-2.54%
O=C(N[C@H](C(=O)O)c1ccc(OCc2ccccc2)cc1)OCc1ccccc1,inhibition,"PRVABC59, Concentration 49.5 uM, Number of replicates 2.0, Standard deviation 1.331842520286677 %",0.942%
same,inhibition,"PRVABC59, Concentration 99.01 uM, Number of replicates 2.0, Standard deviation 1.0180694326604105 %",3.84%
same,inhibition,"PRVABC59, Concentration 198.0 uM, Number of replicates 2.0, Standard deviation 0.8803707895408924 %",10.9%
Cc1cc(CO)c2cccc(Cc3ccccc3NC(=O)c3cc(C(F)F)nn3C)c2n1,inhibition,"PRVABC59, Concentration 49.95 uM, Number of replicates 2.0, Standard deviation 1.9900580299699202 %",-2.76%
same,inhibition,"PRVABC59, Concentration 99.9 uM, Number of replicates 2.0, Standard deviation 1.5421676223092275 %",1.28%
Cc1cc(CO)c2cccc(Cc3ccccc3C(=O)Nc3cc(O)[nH]n3)c2n1,inhibition,"PRVABC59, Concentration 49.95 uM, Number of replicates 2.0, Standard deviation 0.5138590974918532 %",8.28%
same,inhibition,"PRVABC59, Concentration 99.9 uM, Number of replicates 2.0, Standard deviation 0.5558070128777759 %",19.9%
Cc1cc(CO)c2cccc(CC(=O)Nc3cc(O)[nH]n3)c2n1,inhibition,"PRVABC59, Concentration 49.95 uM, Number of replicates 2.0, Standard deviation 0.5293246306718348 %",-5.29%
same,inhibition,"PRVABC59, Concentration 99.9 uM, Number of replicates 2.0, Standard deviation 0.9008701737196211 %",1.86%
O=C(Nc1c(Cl)c(F)nc(F)c1Cl)c1cc(Cl)ccc1NS(=O)(=O)c1ccc(Oc2ccccc2Cl)cc1,inhibition,[2],21.1%
Cc1cc(NCCN(C)C)c2ccccc2n1,inhibition,"PRVABC59, Concentration 99.9 uM, Number of replicates 2.0, Standard deviation 3.7327696087272297 %",-1.69%
CN(C)C[C@H](O)CN1CCN(C(=O)c2cc(Cl)ccc2NS(=O)(=O)c2ccc(Oc3ccccc3Cl)cc2)CC1,inhibition,[2],-3.89%
CC(C)(CO)NC(=O)c1cc(Cl)cc(NC(=O)c2cccc(Cn3ccnc3)c2)c1,inhibition,"PRVABC59, Concentration 49.5 uM, Number of replicates 2.0, Standard deviation 1.5669899033725974 %",2.74%
same,inhibition,"PRVABC59, Concentration 99.01 uM, Number of replicates 2.0, Standard deviation 2.0470978888706237 %",4.64%
same,inhibition,"PRVABC59, Concentration 198.0 uM, Number of replicates 2.0, Standard deviation 1.6609681875389157 %",7.08%
COc1ccc(NC(C)=O)cc1NC(=O)c1cc(Cl)ccc1NS(=O)(=O)c1ccc(Oc2ccccc2Cl)cc1,inhibition,[2],55%
COc1cc(Cc2cccc(-c3nnn[nH]3)c2)nc(N2CCNCC2)n1,inhibition,"PRVABC59, Concentration 49.5 uM, Number of replicates 2.0, Standard deviation 1.4588737117543906 %",3.36%
same,inhibition,"PRVABC59, Concentration 99.01 uM, Number of replicates 2.0, Standard deviation 0.9966751865940986 %",6.34%
same,inhibition,"PRVABC59, Concentration 198.0 uM, Number of replicates 2.0, Standard deviation 2.7085217009562133 %",13.2%
Cc1cc(CO)c2cccc(C[C@H](NC(=O)Cc3cccc(CN)c3)C(=O)O)c2n1,inhibition,"PRVABC59, Concentration 49.95 uM, Number of replicates 2.0, Standard deviation 1.661005908968333 %",-1.72%
same,inhibition,"PRVABC59, Concentration 99.9 uM, Number of replicates 2.0, Standard deviation 1.2746087015891263 %",6.96%
COc1cc(CCNC(=O)c2cc(Cl)ccc2NS(=O)(=O)c2ccc(Oc3ccccc3Cl)cc2)cc(OC)c1,inhibition,[2],28.3%
Cn1nccc1NS(=O)(=O)c1ccc(Oc2ccccc2)cc1,inhibition,"PRVABC59, Concentration 49.5 uM, Number of replicates 2.0, Standard deviation 3.2732797772270357 %",0.602%
same,inhibition,"PRVABC59, Concentration 99.01 uM, Number of replicates 2.0, Standard deviation 3.1579316394829813 %",2.37%
same,inhibition,"PRVABC59, Concentration 198.0 uM, Number of replicates 2.0, Standard deviation 2.940293290063805 %",6.53%
O=Cc1ccc(N2CCC(C(=O)N3CCCN(CCCc4ccccc4)CC3)CC2)cc1,inhibition,[1],26.9%
Cc1cc(CO)c2cccc(Cc3cccc(C(=O)N(c4ncccn4)S(=O)(=O)c4ccc(N)cc4)c3)c2n1,inhibition,"PRVABC59, Concentration 49.95 uM, Number of replicates 2.0, Standard deviation 0.9333358068338657 %",1.86%
same,inhibition,"PRVABC59, Concentration 99.9 uM, Number of replicates 2.0, Standard deviation 0.5295896500552713 %",17.8%
CCc1cc(Br)ccc1NC(=O)c1cc(Cl)ccc1NS(=O)(=O)c1ccc(Oc2ccccc2Cl)cc1,inhibition,[2],41.5%
N#Cc1cc(F)c(NC(=O)c2cc(Cl)ccc2NS(=O)(=O)c2ccc(Oc3ccccc3Cl)cc2)cc1F,inhibition,[2],24.1%
O=Cc1ccc(N2CCC(C(=O)N3CCN(CCc4cccs4)CC3)CC2)cc1,inhibition,[1],19.2%
O=Cc1ccc(N2CCC(C(=O)Nc3cccc(F)c3[N+](=O)[O-])CC2)cc1,inhibition,[1],30.3%
O=C(NCCc1cccc2ccccc12)c1cc(Cl)ccc1NS(=O)(=O)c1ccc(Oc2ccccc2Cl)cc1,inhibition,[2],11%
Cc1cc(CO)c2cccc(NC(=O)C3(C(N)=O)CC3)c2n1,inhibition,"PRVABC59, Concentration 49.95 uM, Number of replicates 2.0, Standard deviation 2.634525996312183 %",7.37%
same,inhibition,"PRVABC59, Concentration 99.9 uM, Number of replicates 2.0, Standard deviation 2.529144039344272 %",18.3%
O=C(c1cc(Cl)ccc1NS(=O)(=O)c1ccc(Oc2ccccc2Cl)cc1)N1CCN(C(=O)[C@@H]2COc3ccccc3O2)CC1,inhibition,[2],19.9%
Cc1cc(NC(=O)C2CCN(c3ccc(C=O)cc3)CC2)c(Cl)cc1F,inhibition,[1],22.4%
O=C(Nc1cccc(Cl)c1Br)c1cc(Cl)ccc1NS(=O)(=O)c1ccc(Oc2ccccc2Cl)cc1,inhibition,[2],25.4%
Cc1c(C2CCN(C(=O)OC(C)(C)C)CC2)cnn1CC(=O)N[C@H]1CCS(=O)(=O)C1,inhibition,"PRVABC59, Concentration 49.5 uM, Number of replicates 2.0, Standard deviation 2.871590407729197 %",-1.78%
same,inhibition,"PRVABC59, Concentration 99.01 uM, Number of replicates 2.0, Standard deviation 2.4383678198467202 %",-1.5%
same,inhibition,"PRVABC59, Concentration 198.0 uM, Number of replicates 2.0, Standard deviation 2.1998965466264124 %",-1.28%
CN(C(=O)c1cc(Cl)ccc1NS(=O)(=O)c1ccc(Oc2ccccc2Cl)cc1)C(c1ccccc1)c1ccccc1,inhibition,[2],25.2%
Cc1cnc(NC(=O)C2CCN(c3ccc(C=O)cc3)CC2)c([N+](=O)[O-])c1,inhibition,[1],6.33%
Cc1sc(NC(=O)C2CCN(c3ccc(C=O)cc3)CC2)nc1-c1ccc(Cl)cc1,inhibition,[1],33.1%
Cc1cc(CO)c2cccc(Nc3cncc(C(=O)O)c3)c2n1,inhibition,"PRVABC59, Concentration 49.95 uM, Number of replicates 2.0, Standard deviation 3.251758163384524 %",-6.6%
same,inhibition,"PRVABC59, Concentration 99.9 uM, Number of replicates 2.0, Standard deviation 2.9055058713587925 %",-3.84%
O=Cc1ccc(N2CCC(C(=O)Nc3ccc([N+](=O)[O-])cc3Cl)CC2)cc1,inhibition,[1],39.8%
